Reference: paper PMC4336329 (PLoS ONE, 2015)
The campaign covered roughly 310,000 compounds. About 14,000 (4.5%) showed an effect of 50% or more. Effects have a minus sign here. The list shows a part of the results.

Biological target: human ether-à-go-go-related gene (hERG) potassium channel (human, UniProt Q12809)
Test: primary screen, population patch clamp on CHO cells stably expressing hERG
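Also: peak tail current of the secondary pulse compared with the same well before compound.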

Chain of human ether-à-go-go-related gene (hERG) potassium channel (Q12809 whole entry, looked up): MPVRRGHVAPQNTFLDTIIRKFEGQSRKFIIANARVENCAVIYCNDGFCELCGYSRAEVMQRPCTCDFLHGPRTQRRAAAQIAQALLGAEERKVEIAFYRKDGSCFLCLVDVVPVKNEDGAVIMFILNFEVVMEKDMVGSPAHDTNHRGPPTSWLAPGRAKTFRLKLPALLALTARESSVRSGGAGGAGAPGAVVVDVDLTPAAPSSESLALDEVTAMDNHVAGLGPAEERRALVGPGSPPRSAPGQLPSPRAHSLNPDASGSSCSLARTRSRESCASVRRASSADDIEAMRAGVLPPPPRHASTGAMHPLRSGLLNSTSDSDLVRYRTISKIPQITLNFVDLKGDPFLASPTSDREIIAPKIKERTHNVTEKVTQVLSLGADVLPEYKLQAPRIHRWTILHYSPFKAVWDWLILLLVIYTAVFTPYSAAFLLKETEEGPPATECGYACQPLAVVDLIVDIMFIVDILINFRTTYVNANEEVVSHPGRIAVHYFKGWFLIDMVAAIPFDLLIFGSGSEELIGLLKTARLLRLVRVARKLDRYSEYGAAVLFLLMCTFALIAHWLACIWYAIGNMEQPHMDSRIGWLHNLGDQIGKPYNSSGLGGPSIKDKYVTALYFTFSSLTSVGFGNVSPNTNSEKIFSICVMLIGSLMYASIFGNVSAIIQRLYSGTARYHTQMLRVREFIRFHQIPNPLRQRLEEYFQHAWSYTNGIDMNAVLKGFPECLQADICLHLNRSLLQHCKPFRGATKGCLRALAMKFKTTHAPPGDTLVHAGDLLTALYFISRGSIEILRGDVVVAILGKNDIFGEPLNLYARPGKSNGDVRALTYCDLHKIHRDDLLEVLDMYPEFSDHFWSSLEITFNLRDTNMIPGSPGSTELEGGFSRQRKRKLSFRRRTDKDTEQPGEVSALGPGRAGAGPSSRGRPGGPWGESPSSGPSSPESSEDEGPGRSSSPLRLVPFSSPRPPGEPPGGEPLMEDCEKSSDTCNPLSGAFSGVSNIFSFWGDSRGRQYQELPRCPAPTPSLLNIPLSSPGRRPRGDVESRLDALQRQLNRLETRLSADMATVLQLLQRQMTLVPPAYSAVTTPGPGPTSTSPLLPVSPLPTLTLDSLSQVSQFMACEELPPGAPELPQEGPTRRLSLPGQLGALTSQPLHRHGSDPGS

| SMILES | hERG current change (%, negative = inhibition) at 10uM [%] |
| --- | --- |
| CC(C)N1C(=O)C(O)(C2COC(C)(C)CC2=O)c2ccccc21 (centres unmarked) | 24.1 |
| Cc1ccccc1Cc1c(C)nc2c(C(=O)N3CCN(Cc4ccc5c(c4)OCO5)CC3)cnn2c1C | -19.7 |
| O=C(CCCc1nc2ccccc2s1)NC(c1ccccc1)c1ccccc1 | -5.52 |
| Cc1nc2ccc(S(=O)(=O)NCC(=O)Nc3ccc(F)cc3)cc2s1 | 13.5 |
| O=C(NCc1ccccc1)c1ccc(NS(=O)(=O)c2cccs2)cc1 | -5.55 |
| CCCc1nnc(SCc2ccc(OC)cc2)n1N | 2.77 |
| COc1ccc(NC2CCCN(C(=O)c3cc(CC(C)C)nc(N)n3)C2)cc1 (centres unmarked) | 0.682 |
| Cc1ccc(OCCCn2cc(C#N)c3ccccc32)cc1 | 0.608 |
| O=C(Cn1ncc2c([nH]c3ccccc32)c1=O)Nc1cccnc1 | 10.3 |
| CCN(CC)CCC#CC(O)(c1ccccc1)C1CCCCC1 (centres unmarked) | -45.5 |
| N#C/C(=C\c1ccc(-c2cccc(Cl)c2)o1)C(=O)Nc1cccc2cccnc12 | 13.2 |
| CC(=O)Nc1ccc(S(=O)(=O)N2C(C)CCCC2C)cc1 (centres unmarked) | 8.62 |
| CCOC(=O)N1CCC(Nc2c(Nc3cccc(CC)c3)c(=O)c2=O)CC1 | -11.1 |
| O=C(NNS(=O)(=O)c1ccccc1)c1cccnc1 | -4.97 |
| CC/C(=N\NC(=O)c1ccccc1)c1c(O)n(Cc2ccccc2)c(=O)[nH]c1=O | 15.5 |
| CSC1=NC2(C[C@H]2c2ccccc2)C(=O)N1C (some centres unmarked) | 16.9 |
| Cc1cccc2c(=O)c(-c3ccc(Cl)cc3)c(NC(=O)c3ccco3)oc12 | 15.3 |
| CC1CCN(S(=O)(=O)N2CCC(C(=O)NCc3ccc4c(c3)OCO4)CC2)CC1 | 6.73 |
| CCOC(=O)Cn1c(=O)oc2cc(S(=O)(=O)NC(C)(C)CC)ccc21 | 4.23 |
| Cc1ccc(C2=NN(S(C)(=O)=O)C(c3ccc4nccnc4c3)C2)cc1 (centres unmarked) | -3.61 |
| CSc1ccccc1NC(=O)C1=CC(c2ccc(C)cc2)=NS(=O)(=O)N1C | -12.3 |
| COC(=O)C1=C(C)NC2=C(C(=O)CC(c3cccs3)C2)C1c1ccsc1 (centres unmarked) | 2.81 |

| SMILES | hERG current change (%, negative = inhibition) at 10uM [%] |
| --- | --- |
| CCCCc1c(C)c2ccc(OCC(C)=O)cc2oc1=O | -10.6 |
| CC(=O)NC(C)C(=O)OCc1ccc(Cl)cc1Cl (centres unmarked) | 5.38 |
| N#CC1=C(Nc2ccccc2)SC=C(c2ccc(Cl)c(Cl)c2)N=C1N1CCOCC1 | -50.9 |
| CCN(CCNC(=O)c1ccc2nc(-c3ccccc3NC(C)=O)c(=O)[nH]c2c1)c1ccccc1 | 8.62 |
| CC(=O)Nc1cccc(OCC(=O)NCCC2=CCCCC2)c1 | -0.744 |
| Oc1ccc(NCc2cccc(OCc3ccccc3)c2)cc1 | -9.81 |
| O=C(COc1ccccc1)Nc1cc(S(=O)(=O)N2CCOCC2)ccc1N1CCCC1 | -8.47 |
| COc1cc(SC#N)ccc1N=Cc1c(C)[nH]n(-c2cccc3ccccc23)c1=O | 17.8 |
| Cc1ccc(-c2nc(C#N)c(NCC3CCCO3)o2)cc1 (centres unmarked) | -0.109 |
| Cc1ccc(NC(=O)COC(=O)CCC(=O)c2ccc(C(C)(C)C)cc2)c([N+](=O)[O-])c1 | 25.4 |
| COc1ccc(NC(=O)CCOc2ccc(C)cc2)c(OC)c1 | 18.3 |
| CC1Cc2ccccc2N1S(=O)(=O)c1ccc2c(c1)n(C)c(=O)c(=O)n2C (centres unmarked) | -3.54 |
| CCc1c(C(=O)Nc2cc(C)cc(C)c2)[nH]c(C)c1C(C)=O | 12.7 |
| COc1ccc(CCNC(=O)c2ccc(N3CCCC3=O)cc2)cc1OC | 15.3 |
| O=C(O)Cn1nnn(-c2ccccc2)c1=S | 9.48 |
| CC(C)C[C@H]1C(=O)N2CCC[C@H]2[C@]2(O)O[C@](NC(=O)C3C=C4c5cccc6[nH]c(Br)c(c56)C[C@H]4N(C)C3)(C(C)C)C(=O)N12.CS(=O)(=O)O (some centres unmarked) | 20.4 |
| Cc1nc(Nc2cccc(C(F)(F)F)c2)nc2c1C(=O)CC(C)C2 (centres unmarked) | 13.8 |
| COc1ccc(/C(O)=C2/C(=O)C(=O)N(c3ccccn3)C2c2ccc(F)cc2)cc1 (centres unmarked) | 35.2 |
| Cc1ccc(CC2CC(=O)N(c3ccc4c(c3)OCCO4)C2=O)cc1 (centres unmarked) | -9.24 |
| CCc1cccc(CC)c1NC(=S)NCC(c1cccnc1)N(C)C (centres unmarked) | 0.113 |
| CC(C)CC(NC(N)=O)C(=O)OCC(=O)Nc1ccc(SC(F)F)cc1 (centres unmarked) | -19.8 |
| COc1ccc(OC)c(N=Cc2c(O)n(Cc3ccccc3)c(=S)[nH]c2=O)c1 | 7.43 |
